In article PMC6919601, “Identification of Plasmodium dipeptidyl aminopeptidase allosteric inhibitors by high throughput screening” (PLoS ONE, 2019):
Among all 110,000 compounds or so, about 230 (0.21%) showed an effect of 50% or more. The list shows a part of the results.

Target: DPAP1 (Plasmodium falciparum, UniProt Q8IIJ9)
Assay: primary screen, percent inhibition; read by cleavage of a fluorogenic dipeptide substrate; higher = more effect of the substance
Parameters: species or system P. falciparum D10 trophozoite lysates; single well
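Note: 30 min substrate incubation versus DMSO and 10 µM JCP410 controls.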

DPAP1, sequence (Q8IIJ9 whole entry, looked up): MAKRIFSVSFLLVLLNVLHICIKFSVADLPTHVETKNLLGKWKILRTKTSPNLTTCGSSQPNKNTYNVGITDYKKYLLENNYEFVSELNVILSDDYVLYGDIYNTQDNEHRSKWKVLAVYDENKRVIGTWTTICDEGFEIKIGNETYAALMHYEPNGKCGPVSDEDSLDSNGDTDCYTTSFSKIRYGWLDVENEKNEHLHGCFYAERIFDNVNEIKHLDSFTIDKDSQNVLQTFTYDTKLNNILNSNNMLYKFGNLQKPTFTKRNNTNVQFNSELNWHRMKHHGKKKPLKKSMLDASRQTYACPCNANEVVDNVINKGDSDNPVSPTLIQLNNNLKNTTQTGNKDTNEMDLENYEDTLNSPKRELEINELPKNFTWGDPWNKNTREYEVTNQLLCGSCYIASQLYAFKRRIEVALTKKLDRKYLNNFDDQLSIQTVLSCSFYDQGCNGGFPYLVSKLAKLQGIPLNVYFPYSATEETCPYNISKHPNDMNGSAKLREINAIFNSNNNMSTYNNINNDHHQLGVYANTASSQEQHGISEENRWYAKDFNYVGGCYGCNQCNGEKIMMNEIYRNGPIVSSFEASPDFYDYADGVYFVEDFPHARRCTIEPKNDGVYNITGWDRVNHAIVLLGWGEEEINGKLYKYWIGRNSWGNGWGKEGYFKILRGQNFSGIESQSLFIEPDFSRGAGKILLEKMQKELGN

Structure (SMILES) | % Inhibition @ 10 uM
CN1CCN(C(=O)c2ccc(N3CCN(CCO)CC3)nc2)CC1 | 3.58%
CC(C)CC1C(C#N)=C(N)OC2=C1C(=O)CC(c1ccccc1)C2 (stereo not shown) | 3.65%
COc1cccc(C2Nc3ccccc3N=C3CC(c4cccs4)CC(O)=C32)c1O (stereo not shown) | -2.77%
CCOc1ccc(Br)cc1/C=C(\C#N)c1nc2ccccc2[nH]1 | -2.36%
O=C(NCc1cccs1)[C@H](Cc1ccccc1)N1Cc2ccccc2C1=O | 2.93%
COc1ccc(CCNC(=O)c2cc(C)nc3c2c(C)nn3-c2ccc(C)cc2)c(OC)c1OC | -9.03%
COc1ccc(NC(=O)c2cnn3c(C(F)F)cc(-c4ccccc4)nc23)c(C)c1 | 2.42%
CCCCCCn1c(CCNC(=O)C(C)C)nc2ccccc21 | -1.74%
Cc1[nH]c(-c2ccc(F)cc2)cc1C(=O)NCCCc1ccccc1 | -1.56%
Cc1ccc2oc(C(=O)Nc3sc4c(c3C(=O)NCc3ccco3)CCCC4)cc(=O)c2c1 | -1.68%
CC1=NN(C(=O)c2ccc(COc3ccccc3Cl)o2)C(O)(C(F)(F)F)C1 (stereo not shown) | 4.03%
CCN1CCN(C(=O)CCNC(=O)c2cc(OC)c(OC)c(OC)c2)CC1 | -2.48%
O=C(Nc1ccc2c(c1)C(=O)c1ccccc1C2=O)c1ccccc1 | -6.18%
COc1ccc(C2CC(c3c(O)cc(C)oc3=O)=NCCS2)cc1OC (stereo not shown) | -4.01%
CC1=CC(C)(C)N(S(=O)(=O)c2ccc(Cl)cc2)c2ccccc21 | -2.09%
CCN1CCC(NC(C)c2ccc(F)cc2)CC1 (stereo not shown) | 3.15%
Cc1ccc(NC(=O)c2ccc(F)cc2)c(NC(=O)c2ccc(F)cc2)c1 | -6.05%
Cc1ccc2cc3cc(C(=O)NCc4ccc(F)cc4Cl)oc3nc2c1 | 1.9%
CCOC(=O)c1sc(NC(=O)c2cncc(Br)c2)c(C(=O)OCC)c1C | 0.343%
CC(C)Oc1ccccc1C1CC(=O)Nc2c1c(=O)n(C)c(=O)n2C (stereo not shown) | -3.51%
CC(=O)Nc1ccc2[nH]c(-c3ccc(Cl)cc3Cl)nc2c1 | 1.96%
COc1cc(C2CC(=O)NC3=C2C(=O)CC(C)(C)C3)ccc1OCc1ccccc1 (stereo not shown) | 0.559%
NC(=O)C1CCN(Cc2ccc(F)cc2F)CC1 | 0.0792%
COc1cc(C(=O)Nc2nc(C)c(C)s2)cc(OC)c1OC | 2.3%
CCOC(=O)c1c(CSc2ccccc2)oc2ccc(O)c(CN(C)C)c12 | -2.75%

Structure (SMILES) | % Inhibition @ 10 uM
CCSc1nc(O)c(CC)c(=O)n1C1CCCCC1 | 5.35%
NC(=O)c1c(NC(=O)c2sc3ccccc3c2Cl)sc2c1CCCCC2 | 17.3%
CN1C(=O)c2[nH]nc(-c3ccc(F)cc3)c2C1c1cccnc1 (stereo not shown) | 2.29%
Cc1ccc2c(CNCCc3ccccc3C)c(C(=O)O)n(Cc3ccccc3F)c2c1 | -5.04%
COc1ccc(C(=O)N/C(=C\c2ccccc2)C(=O)N2CCOCC2)cc1 | 2.36%
Cc1cc(C)nc(-n2cnc3ccccc32)n1 | -2.91%
C=CCOc1ccccc1CN1CCN(c2ccccc2C)CC1 | -1.64%
Cc1nn(C)cc1CN(C)C(=O)c1cc2n(n1)C(C(F)(F)F)CC(c1ccco1)N2 (stereo not shown) | 3.17%
CCc1c(C)sc(NC(=O)C2CCCC2)c1C(N)=O | 3.49%
CCc1ccc(-c2csc(Nc3ccc(C)cn3)n2)cc1 | 3.59%
CCCN1CCN(C(=O)c2ccc3nc(CC)c(CC)nc3c2)CC1 | 1.76%
CCOC(=O)C1=C(CN2CCN(C(=O)OCC)CC2)NC(=O)NC1c1ccc(OC(C)C)cc1 (stereo not shown) | 0.494%
Cn1c(=O)c2c(nc(Oc3cccc(O)c3)n2C)n(C)c1=O | -3.75%
CCC1CCCCN1Cc1nc2c(c(=O)n(C)c(=O)n2C)n1CCCc1ccccc1 (stereo not shown) | 2%
CCn1nccc1C(=O)Nc1ccc(S(=O)(=O)NC23CC4CC(CC(C4)C2)C3)cc1 | -1.82%
Cc1ccc2c(Cl)c(C(=O)Nc3nccs3)sc2c1 | -3.26%
CCCS(=O)(=O)c1nc(S(=O)(=O)c2ccc(C)cc2)c(NCCCN(CC)CC)s1 | 1.15%
Cc1cc(C)c(OC(=O)NC(C(F)(F)F)C(F)(F)F)c(C)c1 | -0.712%
N#CC1=C(N)OC2=C(C(=O)CCC2)C1c1ccc2c(c1)OCO2 (stereo not shown) | 1.66%
N#CCNC(=O)C(CCc1cc(Cl)ccc1Cl)NC(=O)OCc1ccccc1 (stereo not shown) | -3.48%
CNc1nc2nc(O)c3c(c2s1)OC(N)=C(C#N)C3c1cccc(F)c1 (stereo not shown) | -2.77%
Cc1cccc(NC(=O)Cn2ncc3c(=O)oc4ccccc4c32)n1 | -1.03%
Cc1ccc(Cc2cc(C)ncc2C)c(C)c1 | 6.29%
Oc1ccc(SCCCCN2CCCCC2)cc1 | -6.32%
O=C(c1ccco1)N1CCn2cccc2C1c1ccccc1 (stereo not shown) | 4.61%

Structure (SMILES) | % Inhibition @ 10 uM
CCOCCCNC(=O)CS(=O)Cc1nc(-c2ccc(OC)c(OC)c2)oc1C (stereo not shown) | -2.85%
O=C(Cn1cc(SCc2cccc(Cl)c2)c2ccccc21)N1CCCC1 | 0.292%
Cc1ccc(CCNC(=O)CS(=O)Cc2nc(-c3cccs3)oc2C)cc1 (stereo not shown) | 1.55%
CCc1cc2c(cc(C(=O)OC)n2Cc2cc(=O)n3ccccc3n2)s1 | -5.03%
O=C1OC(c2ccccc2F)=N/C1=C\c1ccc2ccccc2c1 | 1.25%
COc1ccc(C)cc1NS(=O)(=O)c1ccc(OC)c(Cl)c1Cl | 0.727%
CCOC(=O)c1ccc2ncc(C(=O)OCC)c(NCCCOC(=O)c3cccs3)c2c1 | 1.52%
CC(=O)c1cccc(NC(=O)CN(Cc2ccc(Cl)cc2)S(=O)(=O)c2ccc(C)cc2)c1 | 0.795%
CC(/C=N/n1cnnc1)=C\c1ccccc1 | 6.23%
Cc1c(Cl)cccc1NS(=O)(=O)c1c(C(C)C)cc(C(C)C)cc1C(C)C | 5.08%
C=CCn1c(SCC(=O)O)nnc1-c1ccc(Cl)cc1Cl | 10.4%
CCOc1ccc(CCNC(=O)CCc2c(C)nc3nc(C)nn3c2C)cc1OCC | 2.93%
CN(C)CCN(C)C/C=C/c1ccccc1 | -6.62%
O=C(Nc1cc(Cl)cc(Cl)c1)Nc1cccc2ccccc12 | -2.18%
CCOC(=O)/C(C#N)=C/c1ccc(SC)cc1 | 11.6%
COc1ccc(CNC(=O)c2ccc(C3SCC(=O)N3CCc3ccccc3)cc2)cc1 (stereo not shown) | -1.65%
COC(=O)C(Cc1ccccc1)NC(=O)c1ccc(Br)cc1 (stereo not shown) | 4.63%
COc1cc(C(=O)N2CCc3ccccc32)cc(OC)c1OC | -1.76%
O=C(OCCn1cncn1)c1cc2ccccc2oc1=O | -3.58%
CC(C)(C)Oc1ncc(-c2ccccc2)c(OC(C)(C)C)n1 | -3.78%
CCN(CC)CCCOc1cccc(Cl)c1 | 0.0792%
Cc1ccc(C)n1-c1nnc(N2CCC(C(=O)N3CCOCC3)CC2)s1 | 2.76%
Cc1ccc(NC(=O)C(C)Sc2nc(N)cc(N)n2)cc1 (stereo not shown) | -2.11%
O=C(COc1ccc(C2CCCCC2)cc1)Nc1ccc(CN2CCOCC2)cc1 | -2.29%
CCC(C)(C)c1ccc(OCC(=O)Nc2ccccc2C(=O)O)cc1 | 1.79%

Structure (SMILES) | % Inhibition @ 10 uM
CC(C)C(C(=O)NC(=O)NC(c1ccccc1)c1ccccc1)N1C(=O)c2ccccc2C1=O (stereo not shown) | -9.1%
COC(=O)c1nnn(-c2ccccc2)c1C(=O)OC | 1.85%
CC(C)n1cnc2c(=O)oc3ccccc3c21 | 1.38%
CCOc1ccc(C2CC(c3cc(OC)c(OC)c(OC)c3)n3nnnc3N2)cc1 (stereo not shown) | 1.73%
O=c1oc(/C=C/c2ccco2)nc2sc3c(c12)CCCC3 | 3.76%
Cc1ccc(S(=O)(=O)N2CC=C(C(=O)NC(C)CCc3ccccc3)CC2)cc1 (stereo not shown) | -0.406%
Cc1ccc(Cc2ccc(C(=O)Nc3ccc(S(=O)(=O)Nc4nccs4)cc3)o2)cc1 | 25.7%
O=C(Nc1ccc(Cl)cc1)N1CCN(c2ccc(Cl)cc2)CC1 | 3.57%
COc1ccc(S(=O)(=O)N(CC(=O)Nc2ccc(C)cc2C)c2ccccc2)cc1 | 3.66%
Cc1ccccc1OCc1nn2c(COc3ccccc3)nnc2s1 | 4.96%
Cn1cc(Cl)c(C(=O)Nc2cccc(S(=O)(=O)N3CCOCC3)c2)n1 | 0.471%
CN1CCN(c2ccc(Nc3ccnc4cc(Cl)ccc34)cc2)CC1 | -1.63%
OCCN1CCN(CC#CCC(O)(c2ccccc2)c2ccccc2)CC1 | 4.42%
CCSC1=C(C#N)C(=O)NC(/C=C/c2ccccc2)S1 (stereo not shown) | 3.35%
COc1cccc(C2NC(=O)NC(C)=C2C(=O)OCCSC)c1OC (stereo not shown) | 2.7%
O=C(O)Cc1nc2ccccc2[nH]1 | -1.72%
O=C1NC(=S)N(c2ccc(Cl)cc2Cl)C(=O)/C1=C/c1ccc(O)cc1 | -1.66%
Cc1ccccc1OCC(=O)Nc1cccc(Cl)c1C | 5.09%
CCOC(=O)c1c(C)oc2ncnc(N3CCC4(CC3)OCCO4)c12 | 1.75%
N=C1/C(=C/c2ccc(O)cc2)C(=O)N=C2SC(C(F)(F)F)=NN12 | 7.13%
CC1CCc2c(sc3ncn4nnnc4c23)C1 (stereo not shown) | -1.6%
CC(C)(C)OC(=O)N1CCC(c2c(C(=O)N3CCOCC3)cnn2C(C)(C)C)CC1 | 1.06%
CCCOc1ccc(C2C(=O)N(C3CCC(C)CC3)CC(=O)N2Cc2ccc(F)cc2)cc1OC (stereo not shown) | -0.406%
Cc1nn(Cc2ccccc2)c(C)c1Cc1ccccc1 | -0.744%
CSc1ncc(C(=O)N2CCN(c3ncccn3)CC2)c(C)n1 | -2.48%
